# Results from PubChem BioAssay AID686979 (National Center for Advancing Translational Sciences (NCATS), 2013).
# Out of some 420,000 compounds screened, about 50,000 (12%) were called active. This list was built around the results that the source calls inconclusive (neither active nor inactive); the mix of calls is not that of the screen. The call rests on the fitted dose curve; in most records, active means well fitted inhibition curve with a large enough effect; inconclusive means small, poorly fitted or top-dose-only effect; inactive means flat fitted curve, though single readings scatter. Potencies of inconclusive entries are left out as doubtful fits.
# Assay: qHTS for Inhibitors of human tyrosyl-DNA phosphodiesterase 1 (TDP1): qHTS in cells in presence of CPT; further: nearly all actives have a fitted effect of over 55% in size
# Conditions: chicken DT40 Tdp1-/-;hTDP1 cells + 20 nM CPT, ATP luminescence, 48 h; activity change, negative = growth inhibition: at 46.2 µM (top of the series) unless noted
# Procedure, shortened: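 Chicken DT40 Tdp1-/- cells stably complemented with human TDP1 were seeded at 400 cells/well in medium containing 20 nM camptothecin, exposed to pin-transferred compounds, and grown at 37 °C for at least 48 hr. Viability was read as ATP luminescence.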
# On the % scale 0 is the no-effect control and ±100 the full control effect; potency means the concentration at half of the fitted maximal effect; tags describe the fitted curve by direction and shape.
Compound,Potency,"activity change, negative = growth inhibition"
CC(=O)Nc1ccc(N2CCN(c3ccc(C(F)(F)F)cn3)CC2)nc1,"inconclusive [inhibitor, partial curve]",
COc1ccc(Oc2nc(OC)cc(OC)n2)cc1,inactive,
CN(C(=O)c1cccc(NC(=O)Cc2ccc(NC(=O)C3CCN(C(=O)C4CCCC4)CC3)cc2)c1)C1CCC1,"inconclusive [inhibitor, single point]",
Cc1nnc(SC(C)C(=O)Nc2ccc(Cl)cc2Cl)[nH]c1=O (configuration not stated),inactive,
COc1ccc(-c2noc(N3CCC(C(=O)Nc4ccccc4OC)CC3)n2)cc1,"inconclusive [inhibitor, single point]",
O=C(NNS(=O)(=O)c1ccc2ccccc2c1)c1cccs1,inactive,
Cc1ccc(C(=O)NCC(=O)OCC(=O)/C=C2\N(C)c3ccccc3C2(C)C)cc1C,active: 16.4 µM,
CC(O)(c1cccc(F)c1)c1nc(-c2ccc3c(c2)OCO3)cs1 (configuration not stated),"inconclusive [inhibitor, single point]",
CCOC(=O)[C@]12CCC=C1N(Cc1ccc3c(c1)OCO3)C(=O)[C@H](CC(=O)NCCCOC)C2,inactive,
O=C(NC(=S)Nc1ccccc1N1CCCC1)c1cccc(F)c1,"inconclusive [inhibitor, single point]",
COc1ccc(C[C@H](N)C(=O)N[C@H]2[C@@H](O)[C@H](n3cnc4c(N(C)C)ncnc43)O[C@@H]2CO)cc1,inactive,
O=C(NNC1=Nc2cccc3cccc1c23)c1ccccc1Br,"inconclusive [inhibitor, single point]",
C/C(=N\NC(=S)NC1CCCCC1)c1cccc(C(F)(F)F)c1,active: 20.6 µM,
CCCN1C(=O)S/C(=C/c2ccc(N3CCOCC3)o2)C1=O,active: 25.9 µM,
Cc1cc(/C=C/c2nc3ccccc3s2)ccc1N(C)C,active: 1.41 µM,
O=C(NCCNC1CCCCC1)c1ccco1,inactive,
COc1ccc(CCNc2nc(C)cc(C)c2C#N)cc1OC,"inconclusive [inhibitor, partial curve, poor fit]",
Cc1c(CN(C)C)c2c(n1Cc1ccccc1)C(=O)c1ccccc1-2,"inconclusive [inhibitor, single point]",
COc1ccc(-c2nc3c(=O)n(C)c(=O)nc-3n(C)n2)cc1,active: 0.0891 µM,
COc1ccc(N(CC(=O)NC2CCCC2)C(=O)Cn2nnc(-c3ccc(C)o3)n2)c(OC)c1,"inconclusive [inhibitor, single point]",
CCOc1cc(-c2nc(C)c(C(C)=O)n2O)ccc1OCC(=O)Nc1ccc(F)cc1,"inconclusive [inhibitor, partial curve]",
COC(=O)c1ccccc1NC1CC(=O)N(c2c(C)cccc2C)C1=O (configuration not stated),"inconclusive [inhibitor, partial curve, poor fit]",
CC(=O)Nc1cc(C(=O)NCc2ccc(F)cc2Cl)ccc1Sc1ccc(Cl)cc1,active: 20.6 µM,
CC(C)Cc1nc(N2CCN(C(=O)c3ccccc3)CC2)c(C#N)c2c1CCC2,"inconclusive [inhibitor, single point]",

Compound,Potency,"activity change, negative = growth inhibition"
O=C1CC(NS(=O)(=O)c2cccs2)CN1c1ccc(F)cc1 (configuration not stated),inactive,
CCN(CC)c1ccc(/C=C(\C#N)C(=O)NCc2ccccc2)cc1,inactive,
CC(=O)n1cc([C@H]2C=C(C(=O)Nc3ccccc3)O[C@@H](OCc3ccc(CO)cc3)C2)c2ccccc21,active: 8.2 µM,
O=C1NCC(O)=C1C=NC12CC3CC(CC(C3)C1)C2,inactive,
Cc1nc(N2CCOCC2)c(C#N)c2c1COC(C)(C)C2,inactive,
Cc1cccc(-n2ccnc2SCC(=O)Nc2cccc(S(=O)(=O)NC3=NCCC3)c2)c1C,"inconclusive [inhibitor, single point]",
COc1ccccc1Nc1ncnc2c1c(C)c(C)n2CCCN(C)C,active: 18.4 µM,
Cc1ccc(/C=C/c2onc(C)c2S(=O)(=O)N2CCC(C(=O)N3CCOc4ccccc43)CC2)cc1,"inconclusive [inhibitor, partial curve]",
O=C(Cn1c(=O)n(Cc2ccccc2)c(=O)c2oc3ccccc3c21)Nc1ccc(Cl)cc1,"inconclusive [inhibitor, single point]",
CCOC(=O)c1ccc(NC(=O)Cc2ccc(-n3c(CC)nc4cccnc43)cc2)cc1,active: 18.4 µM,
CCOC(=O)C1CCN(C(=O)c2ccc(OCC)c(OCC)c2)CC1,"inconclusive [inhibitor, single point]",
O=C1C(=Cc2ccc(Br)o2)C(=O)c2ccccc21,active: 23.1 µM,
COc1ccc2oc(C(=O)N(CC(C)C)C3CCS(=O)(=O)C3)c(C)c2c1 (configuration not stated),"inconclusive [inhibitor, single point]",
Cc1c(CCC(=O)N2CCC(C(=O)O)CC2)c(=O)oc2cc3oc4c(c3cc12)CCCC4,"inconclusive [inhibitor, single point]",
O=C(CC(c1ccccc1)c1cc(Br)ccc1O)NCC1(c2ccccc2)CCCC1 (configuration not stated),"inconclusive [inhibitor, single point]",
COc1ccc(CNC(=O)CCCc2cn(C)c3ccccc23)c(OC)c1,"inconclusive [inhibitor, single point]",
Cc1nc(CNC(=O)CC2C(=O)NCCN2Cc2ccc(F)cc2)cs1 (configuration not stated),inactive,
Cc1ccc(OCc2nnc(SCC(=O)C(C)(C)C)n2Cc2ccco2)cc1,"inconclusive [inhibitor, single point]",
CCc1nc2ccccc2c(C(=O)OCC(=O)NCc2ccc3c(c2)OCO3)c1C,"inconclusive [inhibitor, single point]",
Cc1ccc(-n2nnnc2SCC(=O)Nc2ccc3c(c2)OCCO3)cc1C,,inconclusive: -30.3% [inhibitor]
COc1ccc(-n2c(SCC#N)nc3c(sc(=S)n3-c3ccccc3)c2=O)c(OC)c1,"inconclusive [inhibitor, partial curve, poor fit]",
CN(Cc1ccc(C(C)(C)C)cc1)C(=O)c1ccc2c(c1)OCO2,inactive,
Nc1cccc(-c2cc3ccccc3oc2=O)c1,inactive,
COc1cccc(CN2CCC(C)(Oc3cccc(Cl)c3)C2)c1OC (configuration not stated),"inconclusive [inhibitor, single point]",

Compound,Potency,"activity change, negative = growth inhibition"
CCc1cccc2c1NC(=O)C21N2CCCC2C(C(=O)c2ccc3ccccc3c2)C12C(=O)Nc1ccccc12 (configuration not stated),active: 18.4 µM,
COC(=O)c1ccc(Oc2cc(C)nc(-n3nc(C)cc3C)n2)cc1,active: 0.731 µM,
COc1ccc(CNC(=O)C(C)n2ccc3cc(S(=O)(=O)N4CCCCCC4)ccc32)cc1 (configuration not stated),"inconclusive [inhibitor, single point]",
CSCCC(N=C(NS(=O)(=O)c1ccc(C)cc1)c1ccccc1)C(=O)O (configuration not stated),inactive,
CCCc1[nH]nc2c1C(C1CCCCC1)C(C#N)=C(N)O2 (configuration not stated),"inconclusive [inhibitor, single point]",
Cc1ccc(NC(=O)C(C)Oc2ccccc2)cc1S(=O)(=O)N1CCCCCC1 (configuration not stated),"inconclusive [inhibitor, single point]",
Cc1ccc(CNC(=O)CCc2ccccc2)cc1,inactive,
COc1cc(OC)c(-c2c3cc(O)c(=O)cc-3oc3cc(O)c(O)cc23)cc1OC,"inconclusive [inhibitor, single point]",
COc1ccc(NC(=O)c2sc3nc(C)cc(C)c3c2N)c(OC)c1,"inconclusive [inhibitor, single point]",
O=C(CCN1C(=O)COc2ccccc21)NCCN1CCN(c2cccc(Cl)c2)CC1,"inconclusive [inhibitor, single point]",
CCCCn1c(/C=C/c2ccco2)nc2ccccc21,active: 18.4 µM,
O=C(NCc1cccnc1)c1cc(-c2cccs2)on1,active: 13 µM,
O=C(CCNC(=O)c1ccccc1Cl)NCC12CC3CC(CC(C3)C1)C2,"inconclusive [inhibitor, single point]",
C=CCN(Cc1ccc(Cl)s1)C(=O)c1cc(S(=O)(=O)N2CCOCC2)ccc1F,active: 18.4 µM,
COc1cc(C=O)ccc1OC(=O)N1CCOCC1,inactive,
CCC(C)N(CCNC(=O)CC1Oc2ccc(C)cc2NC1=O)C1CCCCC1 (configuration not stated),"inconclusive [inhibitor, full curve]",
CCOC(=O)[C@]12CCCC=C1N(Cc1cccc3ccccc13)C(=O)[C@H](CC(=O)N1CCCC1)C2,"inconclusive [inhibitor, single point]",
CC(C)C[C@H]1CN=C(N(C)C)N1CCc1cccc(F)c1,inactive,
COc1ccc(Cl)cc1CC1(C)C(=O)Nc2ccc(S(=O)(=O)NC3CCCCC3)cc21 (configuration not stated),active: 23.1 µM,
COc1ccc(C(C)(O)c2nc(-c3ccc(N(C)C)cc3)cs2)cc1 (configuration not stated),active: 18.4 µM,
CCOc1ccccc1C(=O)N[C@H](C(=O)Nc1ccc(OC)c(S(=O)(=O)N2CCOCC2)c1)C(C)C,"inconclusive [inhibitor, single point]",
COc1ccc(NC(=O)Cn2nnc(C(=O)NCc3ccccc3Cl)c2N)cc1Cl,inactive,
CC1(C(=O)Nc2cccc3ncccc23)CCN1C(=O)Cc1ccc(-c2ccccc2)cc1 (configuration not stated),active: 23.1 µM,
CCOc1ccc(N(CC(=O)NC2CCCCC2)C(=O)Cn2nnc(-c3ccc(C)o3)n2)cc1,"inconclusive [inhibitor, single point]",
